# Data reported in paper PMC5892938.
# This is one part of the list. At the low end of the ranking, values are background and their order means little.
# Target: GST-SBP-SLBP (stem-loop binding protein) (UniProt Q14493)
# Test: targeted RNA Bind-n-Seq;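 further: DESeq read counts versus GST-SBP nonspecific binding control pulldown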
# Conditions: RBNS binding buffer: 25 mM Tris pH 7.5, 150 mM KCl, 3 mM MgCl2, 0.1% Tween, 0.5 mg/mL BSA, 1 mM DTT; 27 nM protein, 750 pM RNA pool; temperature not stated; high values mean tight binding
row,Sequence,binding signal (log2 fold change)
1,GGUCACGUCUCAAUCAACUCAUUCCCCAGGGAAAUCCCUGGUUAAUUCAACAGCUCGCAGUCAAG,0.0671
2,GGUCACGUCUCAAUCAACUCUUCGCCCAGGGAAACCCCUGGUAUUUUCAACAGCUCGCAGUCAAG,-0.0467
3,GGUCACGUCUCAAUCAACUCUUCGUCAGGAGUUUCCUCCUGUAUACUCAACAGCUCGCAGUCAAG,0.0669
4,GGUCACGUCUCAAUCAACUCAGUCUCCAGGGAAAACCCUGGUAUUUUCAACAGCUCGCAGUCAAG,-0.158
5,GGUCACGUCUCAAUCAACUCAUUCUCAGGAGUUUGCUCCUGCUAUCUCAACAGCUCGCAGUCAAG,0.0748
6,GGUCACGUCUCAAUCAACUCAAUUCCCAGGGAAACCCCUGGUUUUUUCAACAGCUCGCAGUCAAG,0.0836
7,GGUCACGUCUCAAUCAACUCAAUCUCCAGGGAAAACCCUGGUAUUUUCAACAGCUCGCAGUCAAG,0.117
8,GGUCACGUCUCAAUCAACUCAACUCCCAGGGAAAACCCUGGCAAUCUCAACAGCUCGCAGUCAAG,-0.0246
9,GGUCACGUCUCAAUCAACUCUUUUCCCAGGGAAAGCCCUGGUAUUUUCAACAGCUCGCAGUCAAG,-0.119
10,GGUCACGUCUCAAUCAACUCUACUCCAGGAGUUUUCUCCUGCAAUCUCAACAGCUCGCAGUCAAG,-0.0977
11,GGUCACGUCUCAAUCAACUCUACUUCAGGAGUUUUCUCCUGCUUUUUCAACAGCUCGCAGUCAAG,0.12
12,GGUCACGUCUCAAUCAACUCUUUUCCCAGGGAAACCCCUGGUUAUUUCAACAGCUCGCAGUCAAG,0.221
13,GGUCACGUCUCAAUCAACUCUUUUUCCAGGGAAAUCCCUGGCAAUCUCAACAGCUCGCAGUCAAG,0.038
14,GGUCACGUCUCAAUCAACUCACACGAGGGGGGGAAAACCCCUUUACCCUCCAUUUCAACAGCUCGCAGUCAAG,-0.0603
15,GGUCACGUCUCAAUCAACUCAUUCCCAGGAGUUUUCUCCUGUUAAGUCAACAGCUCGCAGUCAAG,0.0645
16,GGUCACGUCUCAAUCAACUCAAUCUCAGGAGUUUCCUCCUGCAAUGUCAACAGCUCGCAGUCAAG,0.194
17,GGUCACGUCUCAAUCAACUCAAUUUCCAGGGAAACCCCUGGCAUAGUCAACAGCUCGCAGUCAAG,0.157
18,GGUCACGUCUCAAUCAACUCACAGGAGGGGGGGAAAACCCCUUUACCCUCAAUCUCAACAGCUCGCAGUCAAG,0.014
19,GGUCACGUCUCAAUCAACUCUUCCCCAGGAGUUUUCUCCUGUUAAUUCAACAGCUCGCAGUCAAG,-0.176
20,GGUCACGUCUCAAUCAACUCACACGAGGGGGGGAAAACCCCUUUGCCCUCAAUCUCAACAGCUCGCAGUCAAG,-0.119
21,GGUCACGUCUCAAUCAACUCUCUAGAGGGGGGGAAAACCCCUUUGCCCUCAAAAUCAACAGCUCGCAGUCAAG,-0.289
22,GGUCACGUCUCAAUCAACUCAACUUCAGGAGUUUUCUCCUGCUAUUUCAACAGCUCGCAGUCAAG,0.167
23,GGUCACGUCUCAAUCAACUCCAUAGAGGGGGGGAAAACCCCUUUGCCCUCAACUUCAACAGCUCGCAGUCAAG,0.132
24,GGUCACGUCUCAAUCAACUCAUUCUCAGGAGUUUUCUCCUGUUUUCUCAACAGCUCGCAGUCAAG,0.113
25,GGUCACGUCUCAAUCAACUCAAUCGAGGGGGGGAAAACCCCUUUACCCUCACUCUCAACAGCUCGCAGUCAAG,0.375

row,Sequence,binding signal (log2 fold change)
1,GGUCACGUCUCAAUCAACUCAUUCCCAGGAGUUUGCUCCUGUAUAUUCAACAGCUCGCAGUCAAG,0.0303
2,GGUCACGUCUCAAUCAACUCUUUCCCCAGGGAAACCCCUGGUAUUUUCAACAGCUCGCAGUCAAG,-0.139
3,GGUCACGUCUCAAUCAACUCAUCGUCAGGAGUUUUCUCCUGUUAACUCAACAGCUCGCAGUCAAG,0.206
4,GGUCACGUCUCAAUCAACUCUUUCUCAGGAGUUUCCUCCUGUAAAUUCAACAGCUCGCAGUCAAG,-0.171
5,GGUCACGUCUCAAUCAACUCUUCUCCCAGGGAAACCCCUGGCUAUCUCAACAGCUCGCAGUCAAG,0.00505
6,GGUCACGUCUCAAUCAACUCAUCUUCCAGGGAAACCCCUGGUUAUUUCAACAGCUCGCAGUCAAG,-0.331
7,GGUCACGUCUCAAUCAACUCUUCCUCAGGAGUUUCCUCCUGUAAAUUCAACAGCUCGCAGUCAAG,0.0259
8,GGUCACGUCUCAAUCAACUCAUCUUCAGGAGUUUUCUCCUGCUUAGUCAACAGCUCGCAGUCAAG,0.163
9,GGUCACGUCUCAAUCAACUCAUCCCCAGGAGUUUCCUCCUGUAUUUUCAACAGCUCGCAGUCAAG,0.149
10,GGUCACGUCUCAAUCAACUCUACAGAGGGGGGGAAAACCCCUUUACCCUCCAUCUCAACAGCUCGCAGUCAAG,-0.129
11,GGUCACGUCUCAAUCAACUCAGUUCCAGGAGUUUACUCCUGCAAAUUCAACAGCUCGCAGUCAAG,0.082
12,GGUCACGUCUCAAUCAACUCAUCUCCAGGAGUUUCCUCCUGUUAACUCAACAGCUCGCAGUCAAG,0.0138
13,GGUCACGUCUCAAUCAACUCAAUCUCCAGGGAAAGCCCUGGUAUUCUCAACAGCUCGCAGUCAAG,-0.142
14,GGUCACGUCUCAAUCAACUCUUCGUCCAGGGAAAACCCUGGUAUAUUCAACAGCUCGCAGUCAAG,-0.346
15,GGUCACGUCUCAAUCAACUCUAUCCCAGGAGUUUACUCCUGCUAUUUCAACAGCUCGCAGUCAAG,0.157
16,GGUCACGUCUCAAUCAACUCAUCCUCCAGGGAAAGCCCUGGUAAACUCAACAGCUCGCAGUCAAG,-0.23
17,GGUCACGUCUCAAUCAACUCUUCGUCAGGAGUUUACUCCUGCUAAUUCAACAGCUCGCAGUCAAG,0.0101
18,GGUCACGUCUCAAUCAACUCAUUUCCCAGGGAAAUCCCUGGUAAUCUCAACAGCUCGCAGUCAAG,0.14
19,GGUCACGUCUCAAUCAACUCAUUCUCCAGGGAAAUCCCUGGCUUACUCAACAGCUCGCAGUCAAG,0.115
20,GGUCACGUCUCAAUCAACUCCAUCGAGGGGGGGAAAACCCCUUUACCCUCAUCAUCAACAGCUCGCAGUCAAG,0.201
21,GGUCACGUCUCAAUCAACUCUAUUCCCAGGGAAACCCCUGGUUAAUUCAACAGCUCGCAGUCAAG,-0.0713
22,GGUCACGUCUCAAUCAACUCAUCGUCAGGAGUUUACUCCUGCUAUCUCAACAGCUCGCAGUCAAG,0.215
23,GGUCACGUCUCAAUCAACUCAUCUCCAGGAGUUUUCUCCUGUUUAGUCAACAGCUCGCAGUCAAG,0.117
24,GGUCACGUCUCAAUCAACUCUUCGUCCAGGGAAACCCCUGGUAAUCUCAACAGCUCGCAGUCAAG,0.18
25,GGUCACGUCUCAAUCAACUCCUCAGAGGGGGGGAAAACCCCUUUACCCUCCAAUUCAACAGCUCGCAGUCAAG,-0.431

row,Sequence,binding signal (log2 fold change)
1,GGUCACGUCUCAAUCAACUCAUUCCCCAGGGAAAUCCCUGGCUAACUCAACAGCUCGCAGUCAAG,0.243
2,GGUCACGUCUCAAUCAACUCACAAGAGGGGGGGAAAACCCCUUUACCCUCGGAAUCAACAGCUCGCAGUCAAG,-0.0942
3,GGUCACGUCUCAAUCAACUCAUCAGAGGGGGGGAAAACCCCUUUGCCCUCAUCUUCAACAGCUCGCAGUCAAG,0.0385
4,GGUCACGUCUCAAUCAACUCAAUCUCAGGAGUUUCCUCCUGCAUACUCAACAGCUCGCAGUCAAG,0.181
5,GGUCACGUCUCAAUCAACUCAAUUUCCAGGGAAACCCCUGGCAUUCUCAACAGCUCGCAGUCAAG,-0.0943
6,GGUCACGUCUCAAUCAACUCAUUCCCCAGGGAAACCCCUGGUUUAUUCAACAGCUCGCAGUCAAG,-0.302
7,GGUCACGUCUCAAUCAACUCACUAGAGGGGGGGAAAACCCCUUUACCCUCACCAUCAACAGCUCGCAGUCAAG,0.198
8,GGUCACGUCUCAAUCAACUCUAAAGAGGGGGGGAAAACCCCUUUACCCUCCGUUUCAACAGCUCGCAGUCAAG,-0.438
9,GGUCACGUCUCAAUCAACUCACUCGAGGGGGGGAAAACCCCUUUACCCUCAAAAUCAACAGCUCGCAGUCAAG,-0.0986
10,GGUCACGUCUCAAUCAACUCUACGCCAGGAGUUUUCUCCUGUAAAUUCAACAGCUCGCAGUCAAG,0.254
11,GGUCACGUCUCAAUCAACUCCCUCGAGGGGGGGAAAACCCCUUUACCCUCAAUAUCAACAGCUCGCAGUCAAG,-0.0806
12,GGUCACGUCUCAAUCAACUCUUACGAGGGGGGGAAAACCCCUUUGCCCUCACAUUCAACAGCUCGCAGUCAAG,-0.344
13,GGUCACGUCUCAAUCAACUCAUCUCCCAGGGAAAGCCCUGGCAUAUUCAACAGCUCGCAGUCAAG,0.0799
14,GGUCACGUCUCAAUCAACUCUUCCCCCAGGGAAAUCCCUGGCAAUUUCAACAGCUCGCAGUCAAG,0.000768
15,GGUCACGUCUCAAUCAACUCAACUCCCAGGGAAACCCCUGGCAAACUCAACAGCUCGCAGUCAAG,-0.036
16,GGUCACGUCUCAAUCAACUCCUAAGAGGGGGGGAAAACCCCUUUACCCUCCACCUCAACAGCUCGCAGUCAAG,-0.16
17,GGUCACGUCUCAAUCAACUCUAUCCCCAGGGAAAGCCCUGGUUUUCUCAACAGCUCGCAGUCAAG,0.0973
18,GGUCACGUCUCAAUCAACUCCAAAGAGGGGGGGAAAACCCCUUUACCCUCCAAAUCAACAGCUCGCAGUCAAG,-0.0423
19,GGUCACGUCUCAAUCAACUCAAUUCCCAGGGAAACCCCUGGCUUUCUCAACAGCUCGCAGUCAAG,0.183
20,GGUCACGUCUCAAUCAACUCAGUUUCAGGAGUUUCCUCCUGCAUAUUCAACAGCUCGCAGUCAAG,0.0857
21,GGUCACGUCUCAAUCAACUCAUCCCCCAGGGAAACCCCUGGUUAAUUCAACAGCUCGCAGUCAAG,-0.15
22,GGUCACGUCUCAAUCAACUCAUUUUCCAGGGAAAGCCCUGGCUAAUUCAACAGCUCGCAGUCAAG,0.256
23,GGUCACGUCUCAAUCAACUCAUUCCCAGGAGUUUCCUCCUGCAAACUCAACAGCUCGCAGUCAAG,0.0114
24,GGUCACGUCUCAAUCAACUCAACAGAGGGGGGGAAAACCCCUUUACCCUCGAAAUCAACAGCUCGCAGUCAAG,-0.127
